This is an account of results in paper PMC6548130.

These are yes or no findings as the source states them, for the method shown. Binding seen in cells or lysates may run through a third protein. Some results given as binding are weak or reduced against the parent protein; the word gives no strength.

Common to all, as to assay: split reporter; BiFC with the two halves of Venus: pVC-SNF7 and pVN-ATGX cotransformed in yeast cells, expression induced in SD-Ura-His-Met for 1.5 h, starved in SD-N for 30 min, YFP dots seen by live-cell fluorescence microscopy; Atg17-Snf7 also tested in vps9Δ, vps21Δ, vps8Δ, pep12Δ, ypt7Δ and vps39Δ cells (dependent on the Rab5 module, not on Ypt7 or Vps39)
One assay deals with T1, VN-Atg31 (yeast) (UniProt Q12421).
T1 sequence: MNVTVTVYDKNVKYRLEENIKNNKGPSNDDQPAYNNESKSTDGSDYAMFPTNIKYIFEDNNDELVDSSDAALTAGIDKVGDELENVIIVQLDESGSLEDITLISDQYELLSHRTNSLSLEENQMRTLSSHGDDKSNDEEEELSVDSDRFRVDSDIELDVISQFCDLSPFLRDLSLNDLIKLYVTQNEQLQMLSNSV

The next assay has as its target T2, VN-Atg17 (yeast) (UniProt Q06410).
T2 sequence: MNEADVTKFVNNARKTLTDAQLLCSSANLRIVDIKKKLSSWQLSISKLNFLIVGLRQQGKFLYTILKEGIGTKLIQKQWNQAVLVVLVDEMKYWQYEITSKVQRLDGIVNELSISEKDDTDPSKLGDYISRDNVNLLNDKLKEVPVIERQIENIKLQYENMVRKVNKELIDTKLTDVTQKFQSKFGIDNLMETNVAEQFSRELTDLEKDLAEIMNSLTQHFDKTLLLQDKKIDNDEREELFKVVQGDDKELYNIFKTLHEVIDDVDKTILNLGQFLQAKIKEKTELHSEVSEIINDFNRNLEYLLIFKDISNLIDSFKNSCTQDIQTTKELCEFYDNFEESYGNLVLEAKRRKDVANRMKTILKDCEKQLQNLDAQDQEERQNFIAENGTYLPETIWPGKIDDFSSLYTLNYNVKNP

For a further assay, the target named is T3, VN-Atg11 (yeast) (UniProt Q12527).
T3 sequence: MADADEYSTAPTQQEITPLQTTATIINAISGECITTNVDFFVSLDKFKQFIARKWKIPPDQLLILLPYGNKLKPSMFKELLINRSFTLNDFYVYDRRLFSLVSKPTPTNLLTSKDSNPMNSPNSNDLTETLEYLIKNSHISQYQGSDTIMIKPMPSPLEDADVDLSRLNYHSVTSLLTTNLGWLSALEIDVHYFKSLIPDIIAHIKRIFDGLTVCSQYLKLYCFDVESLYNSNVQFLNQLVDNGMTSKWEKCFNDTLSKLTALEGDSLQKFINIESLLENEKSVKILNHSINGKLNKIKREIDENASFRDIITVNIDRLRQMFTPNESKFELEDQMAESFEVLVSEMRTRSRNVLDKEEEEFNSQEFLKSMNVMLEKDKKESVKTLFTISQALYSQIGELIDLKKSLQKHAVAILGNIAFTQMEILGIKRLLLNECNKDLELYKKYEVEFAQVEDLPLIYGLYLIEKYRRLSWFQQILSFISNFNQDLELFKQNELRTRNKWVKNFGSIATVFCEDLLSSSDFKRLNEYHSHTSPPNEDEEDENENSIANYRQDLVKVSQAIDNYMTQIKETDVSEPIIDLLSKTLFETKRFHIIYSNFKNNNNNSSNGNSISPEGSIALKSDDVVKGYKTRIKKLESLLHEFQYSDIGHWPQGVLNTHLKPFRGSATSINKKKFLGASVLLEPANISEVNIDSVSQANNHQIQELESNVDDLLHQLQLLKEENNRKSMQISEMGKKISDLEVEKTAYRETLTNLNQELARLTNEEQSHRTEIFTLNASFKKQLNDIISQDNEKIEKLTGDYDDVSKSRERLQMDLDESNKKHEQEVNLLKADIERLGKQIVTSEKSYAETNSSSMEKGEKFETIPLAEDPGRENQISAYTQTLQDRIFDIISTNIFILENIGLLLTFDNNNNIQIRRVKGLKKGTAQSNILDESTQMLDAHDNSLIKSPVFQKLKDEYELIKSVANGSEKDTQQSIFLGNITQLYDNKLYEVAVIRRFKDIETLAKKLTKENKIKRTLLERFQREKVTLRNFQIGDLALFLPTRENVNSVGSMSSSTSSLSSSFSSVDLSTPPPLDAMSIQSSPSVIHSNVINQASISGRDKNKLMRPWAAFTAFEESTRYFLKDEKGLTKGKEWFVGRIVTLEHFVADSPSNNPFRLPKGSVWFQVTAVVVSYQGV

The next assay has as its target T4, VN-Atg29 (yeast) (UniProt Q12092).
T4 sequence: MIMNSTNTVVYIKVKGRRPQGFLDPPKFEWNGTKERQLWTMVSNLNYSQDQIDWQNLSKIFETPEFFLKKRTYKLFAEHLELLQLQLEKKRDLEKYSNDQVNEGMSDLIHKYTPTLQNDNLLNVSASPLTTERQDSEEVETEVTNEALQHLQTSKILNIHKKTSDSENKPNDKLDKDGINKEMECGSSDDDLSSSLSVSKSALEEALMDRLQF

B1: VC-Snf7 (protein, UniProt P39929 1-240)
chain: MWSSLFGWTSSNAKNKESPTKAIVRLREHINLLSKKQSHLRTQITNQENEARIFLTKGNKVMAKNALKKKKTIEQLLSKVEGTMESMEQQLFSIESANLNLETMRAMQEGAKAMKTIHSGLDIDKVDETMDEIREQVELGDEISDAISRPLITGANEVDEDELDEELDMLAQENANQETSKIVNNNVNAAPISENKVSLPSVPSNKIKQSENSVKDGEEEEDEEDEDEKALRELQAEMGL
As for B1, the binding result in the assay with VN-Atg31 (yeast) is listed as “no binding”; with VN-Atg17 (yeast) it was “binds”; in the assay with VN-Atg11 (yeast) it was “binds”; with VN-Atg29 (yeast), “binds weakly”.
